{
  "source": "paper PMC4336329",
  "about": "(PLoS ONE, 2015)",
  "note": "Screen size: about 310,000 compounds; about 2,200 (0.71%) showed an effect of 50% or more. The effect is printed as a negative number. The list shows a part of the results.",
  "data": [
    {"molecular_target": "human ether-à-go-go-related gene (hERG) potassium channel (human, UniProt Q12809)", "sequence (Q12809 whole entry, looked up)": "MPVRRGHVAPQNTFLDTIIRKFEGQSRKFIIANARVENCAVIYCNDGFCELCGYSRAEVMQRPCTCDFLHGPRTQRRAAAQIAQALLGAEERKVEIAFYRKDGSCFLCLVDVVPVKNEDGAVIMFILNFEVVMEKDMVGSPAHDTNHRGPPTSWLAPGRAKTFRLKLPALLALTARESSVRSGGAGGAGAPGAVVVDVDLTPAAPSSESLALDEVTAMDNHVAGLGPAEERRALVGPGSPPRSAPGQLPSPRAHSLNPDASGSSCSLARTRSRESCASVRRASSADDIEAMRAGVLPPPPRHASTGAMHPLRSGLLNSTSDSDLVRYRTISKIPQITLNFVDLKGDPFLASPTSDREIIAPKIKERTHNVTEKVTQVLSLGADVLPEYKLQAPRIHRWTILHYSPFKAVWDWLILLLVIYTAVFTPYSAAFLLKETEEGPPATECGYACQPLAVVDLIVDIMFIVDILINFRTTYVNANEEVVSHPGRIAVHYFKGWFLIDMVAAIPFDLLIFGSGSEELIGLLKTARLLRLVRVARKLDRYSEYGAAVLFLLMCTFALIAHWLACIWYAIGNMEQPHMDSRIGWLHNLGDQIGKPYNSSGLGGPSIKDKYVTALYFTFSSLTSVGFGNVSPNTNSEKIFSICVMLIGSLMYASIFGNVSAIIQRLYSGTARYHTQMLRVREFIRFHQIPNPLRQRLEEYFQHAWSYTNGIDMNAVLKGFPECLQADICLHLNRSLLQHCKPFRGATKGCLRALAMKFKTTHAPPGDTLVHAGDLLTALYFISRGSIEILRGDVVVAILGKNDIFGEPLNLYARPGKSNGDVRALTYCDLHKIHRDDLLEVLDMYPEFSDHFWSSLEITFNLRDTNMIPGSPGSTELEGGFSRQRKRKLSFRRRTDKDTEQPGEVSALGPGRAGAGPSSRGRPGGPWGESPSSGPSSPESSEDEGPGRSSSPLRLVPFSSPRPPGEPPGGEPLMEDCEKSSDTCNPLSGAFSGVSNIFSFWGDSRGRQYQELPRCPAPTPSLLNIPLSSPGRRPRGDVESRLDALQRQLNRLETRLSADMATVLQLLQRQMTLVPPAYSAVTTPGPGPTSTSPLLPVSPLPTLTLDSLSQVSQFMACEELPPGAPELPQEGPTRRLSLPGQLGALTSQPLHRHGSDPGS", "experiment": "primary screen, population patch clamp on CHO cells stably expressing hERG", "units": {"hERG current change (%, negative = inhibition) at 1uM": "%"}, "values": [
      {"smiles": "N/C(=N\\OC(=O)CCC1CCCC1)c1ccccn1", "hERG current change (%, negative = inhibition) at 1uM": 1.29},
      {"smiles": "CN1CCN(C(=O)c2ccc3c(c2)N(C)C(=O)/C(=C/c2cccc(Cl)c2)S3)CC1", "hERG current change (%, negative = inhibition) at 1uM": 15.8},
      {"smiles": "Cc1cccc(C(=O)N2CCC(c3nc4ccccc4s3)CC2)c1", "hERG current change (%, negative = inhibition) at 1uM": 1.54},
      {"smiles": "CCOC(=O)c1sc2nc(C)n(CC(=O)NCC3CCCO3)c(=O)c2c1C", "note": "(stereo not drawn)", "hERG current change (%, negative = inhibition) at 1uM": 8.04},
      {"smiles": "CNc1nc2c3ccccc3n(C(C)=O)c2s1", "hERG current change (%, negative = inhibition) at 1uM": 4.27},
      {"smiles": "c1ccc2c(NC3C4CC5CC(C4)CC3C5)nc(N3CCOCC3)nc2c1", "note": "(stereo not drawn)", "hERG current change (%, negative = inhibition) at 1uM": 6.13},
      {"smiles": "Cc1ccc(C(=O)N2CCN(c3ccccn3)CC2)cc1Cl", "hERG current change (%, negative = inhibition) at 1uM": 6.33},
      {"smiles": "CN(C)c1ccc(NC(=O)c2cccc(C(=O)Nc3ccc(N(C)C)cc3)n2)cc1", "hERG current change (%, negative = inhibition) at 1uM": -1.63},
      {"smiles": "CCN1CCN(C(CNS(=O)(=O)c2ccc(Cl)cc2)c2ccccc2)CC1", "note": "(stereo not drawn)", "hERG current change (%, negative = inhibition) at 1uM": -35.6},
      {"smiles": "Nc1nnc(SCc2nc3scc(-c4ccccc4)c3c(=O)[nH]2)s1", "hERG current change (%, negative = inhibition) at 1uM": 15.6},
      {"smiles": "O=C(COC(=O)CCS(=O)(=O)c1ccc(Cl)cc1)NC1CCCCC1", "hERG current change (%, negative = inhibition) at 1uM": 5.91},
      {"smiles": "O=C(NN1C(=O)NC2(CCCCC2)C1=O)c1ccc(Cl)c(Cl)c1", "hERG current change (%, negative = inhibition) at 1uM": -2.79},
      {"smiles": "COc1ccccc1CNC(=O)C(=O)NCC1OCCN1C(=O)c1cccs1", "note": "(stereo not drawn)", "hERG current change (%, negative = inhibition) at 1uM": 18.7},
      {"smiles": "Cc1ccc(OCC(=O)N2CCCC(CCC(=O)N(C)CCc3ccccn3)C2)cc1", "note": "(stereo not drawn)", "hERG current change (%, negative = inhibition) at 1uM": 14.3},
      {"smiles": "CCc1ccc(NC(=O)COC(=O)/C=C/c2c(C)nn(C3CCS(=O)(=O)C3)c2Cl)cc1", "note": "(stereo not drawn)", "hERG current change (%, negative = inhibition) at 1uM": 21.7},
      {"smiles": "CC1CCC2(CC1)NC(CO)(CO)CO2", "note": "(stereo not drawn)", "hERG current change (%, negative = inhibition) at 1uM": 11.2},
      {"smiles": "OCCCC1CCCCN1Cc1nc(Cc2ccccc2Cl)no1", "note": "(stereo not drawn)", "hERG current change (%, negative = inhibition) at 1uM": -65.5},
      {"smiles": "O=C1c2ccccc2C(Nc2ccc3c(c2)OCCO3)N1Cc1ccc2c(c1)OCO2", "note": "(stereo not drawn)", "hERG current change (%, negative = inhibition) at 1uM": 4.35},
      {"smiles": "Nc1nc(Sc2c([N+](=O)[O-])cc(C(F)(F)F)cc2[N+](=O)[O-])n[nH]1", "hERG current change (%, negative = inhibition) at 1uM": 4.93},
      {"smiles": "CN1CCN(CCC(=O)Nc2cccc(F)c2)CC1", "hERG current change (%, negative = inhibition) at 1uM": 13},
      {"smiles": "O=c1[nH]c(SCc2cccc(Cl)c2)nc2[nH]ncc12", "hERG current change (%, negative = inhibition) at 1uM": 8.82},
      {"smiles": "COC(=O)c1ccc(COC(=O)Cc2n[nH]c(=O)c3ccccc23)cc1", "hERG current change (%, negative = inhibition) at 1uM": 7.76},
      {"smiles": "COc1ccc(C2c3c(oc4ccccc4c3=O)C(=O)N2c2ccc(C)cn2)cc1OC", "note": "(stereo not drawn)", "hERG current change (%, negative = inhibition) at 1uM": -0.607},
      {"smiles": "COc1ccc(N2C(=O)C3ON(C4SC(=S)N(C)C4(C)C)C(c4ccc(Cl)cc4)C3C2=O)cc1", "note": "(stereo not drawn)", "hERG current change (%, negative = inhibition) at 1uM": 2.68},
      {"smiles": "Cc1cc(C)cc(OCC(=O)N(Cc2ccco2)c2c(N)n(Cc3ccccc3)c(=O)[nH]c2=O)c1", "hERG current change (%, negative = inhibition) at 1uM": 4.97},
      {"smiles": "COC(=O)c1cccc(NC(=O)c2cnccn2)c1", "hERG current change (%, negative = inhibition) at 1uM": 11.1},
      {"smiles": "COc1ccc(OC)c(/C=c2\\sc3nc(-c4cccs4)nn3c2=O)c1", "hERG current change (%, negative = inhibition) at 1uM": 10.6},
      {"smiles": "CCOC(=O)N1CCC(=C(C#N)C(=O)Nc2cc(OC)ccc2OC)CC1", "hERG current change (%, negative = inhibition) at 1uM": 15.5},
      {"smiles": "CCCOc1ccc(NC(=O)C2CC(=O)N(C)C(=Nc3cccc(OC)c3)S2)cc1", "note": "(stereo not drawn)", "hERG current change (%, negative = inhibition) at 1uM": 11.5},
      {"smiles": "COc1ccccc1-c1nc2cc(Cl)ccc2c(=O)n1O", "hERG current change (%, negative = inhibition) at 1uM": 18},
      {"smiles": "COc1cccc(/C=C/C(=O)NCc2ccc(S(N)(=O)=O)cc2)c1", "hERG current change (%, negative = inhibition) at 1uM": 4.85},
      {"smiles": "O=C(Nc1ccc(N2CCCC2)cc1)c1ccccc1F", "hERG current change (%, negative = inhibition) at 1uM": 15.8},
      {"smiles": "COC(=O)c1c(C(=O)OC)c(-c2ccc(F)cc2)n2c1CSC2", "hERG current change (%, negative = inhibition) at 1uM": 8.67},
      {"smiles": "O=c1oc2ccc3ccccc3c2cc1-c1nnc(-c2cccs2)o1", "hERG current change (%, negative = inhibition) at 1uM": 4.71},
      {"smiles": "CS(=O)(=O)O.O=C(O)c1ccc2c(c1)c1c3n2CCNC3CCC1", "note": "(stereo not drawn)", "hERG current change (%, negative = inhibition) at 1uM": 18.5},
      {"smiles": "Cc1ccc(C(=O)NN2C(=O)C3C4C=CC([C@@H]3C2=O)C42CC2)cc1", "note": "(stereo partly drawn)", "hERG current change (%, negative = inhibition) at 1uM": 14.2},
      {"smiles": "COC(=O)Cn1c(=O)oc2ccc(C)cc21", "hERG current change (%, negative = inhibition) at 1uM": 7.8},
      {"smiles": "Cc1ccc(NC(=O)Cc2c(C(=O)O)n(C)c3ccccc23)cc1F", "hERG current change (%, negative = inhibition) at 1uM": 12.5},
      {"smiles": "COc1ccc2c(c1)O[C@@H](c1cccc(C(F)(F)F)c1)[C@H](OC(=O)N[C@H]1CCCc3ccccc31)C2=O", "hERG current change (%, negative = inhibition) at 1uM": 16.1},
      {"smiles": "CCOc1ccc(-n2cnc3sc4c(c3c2=O)CCCC4)cc1", "hERG current change (%, negative = inhibition) at 1uM": 2.61},
      {"smiles": "Cc1ccc(CN2CCN(C/C=C/c3ccc(F)cc3)CC2CCO)o1", "note": "(stereo not drawn)", "hERG current change (%, negative = inhibition) at 1uM": -0.0683},
      {"smiles": "CCN1CCC(NC(=O)Nc2cc(Cl)ccc2OC)CC1", "hERG current change (%, negative = inhibition) at 1uM": 15.8},
      {"smiles": "COc1ccc([C@H]2CC(=O)C=C(c3ccc(OC)c(F)c3)C2)cc1", "hERG current change (%, negative = inhibition) at 1uM": 8.31},
      {"smiles": "CCN(CC)C(=O)C1CCCN(Cc2ccc3ccccc3c2)C1", "note": "(stereo not drawn)", "hERG current change (%, negative = inhibition) at 1uM": 11.2},
      {"smiles": "COc1ccc2cc3c(N)nn(C(=O)Cc4c[nH]c5ccccc45)c3nc2c1", "hERG current change (%, negative = inhibition) at 1uM": 11.8}
    ]}
  ]
}
